# In the supplement of paper PMC11125491:
# ± gives the standard deviation of the averaged measurements. Growth of baker's yeast expressing single-residue variants of Pneumocystis jirovecii dihydrofolate reductase in 8.8 or 44 µM methotrexate (about 75% and 90% inhibition of the wild type). Selection coefficient per generation; 0 = like wild type, above 0 = less sensitive, below 0 = more sensitive or loss of function. No active / inactive call per row; the paper calls resistant above 0.220 (8.8 µM) or 0.243 (44 µM) together with a significance test. At 44 µM about 15% of codons end with one read or none, so the lowest values are floors (replicate rank correlation 0.74; 0.94 at 8.8 µM).
# B1: UniProt A0EPZ9; numbered along this chain (parent)
# chain: MDWQKSLTLIVALTLSRGIGLKNDLPWKLKSDMMFFSRVTSGLLVTRSTGQMNVVLMGRKTWESLPAHSRPLKNRINVVISRQEVLDLGGGAYHARSLDDALALLSQIYDSTSKIQLNRVFVIGGGELCKAAMEHSRLNRIIATVIHNEVDCDVFFPIDFRSSQSCLPWRKQDHSVLEAWVGSKVPQGKINENGFIYEFEMWIRDI
# Variants of: B1
# Assay: selection coefficient against synonymous wild-type codons (log2 per generation); higher = faster growth than wild type
# Details: with Saccharomyces cerevisiae carrying the variant on a plasmid
# Description: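 Pooled growth of yeast carrying single-residue variants of P. jirovecii dihydrofolate reductase (own DFR1 gene intact), two passages at 30 °C, three cultures, sequenced before and after. Codons with under 15 starting reads are left out; codons of one change are averaged.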
Variant,selection coefficient against synonymous wild-type codons (log2) (methotrexate 8.8 µM),selection coefficient against synonymous wild-type codons (log2) (methotrexate 44 µM)
C152V,0.0263 ± 0.036,-0.00895 ± 0.093
N23L,-0.124 ± 0.072,-0.156 ± 0.11
S163R,-0.107 ± 0.049,-0.139 ± 0.11
G20R,-0.305 ± 0.14,-0.184 ± 0.12
G20Y,-0.465 ± 0.066,-0.26 ± 0.021
I19S,0.418 ± 0.089,0.463 ± 0.11
L44N,0.241 ± 0.024,0.263 ± 0.024
N191M,-0.11 ± 0.057,-0.17 ± 0.02
L29A,0.415 ± 0.035,0.455 ± 0.045
H174D,-0.0666 ± 0.058,-0.17 ± 0.042
S69F,0.207 ± 0.029,0.268 ± 0.0089
S69I,0.0686 ± 0.058,0.0598 ± 0.12
S183M,-0.304 ± 0.15,-0.351 ± 0.1
V150R,0.135 ± 0.055,0.0356 ± 0.079
V150N,0.346 ± 0.053,0.328 ± 0.035
V150C,-0.19 ± 0.04,-0.246 ± 0.01
V150D,0.357 ± 0.021,0.296 ± 0.04
V150P,0.0807 ± 0.053,-0.0305 ± 0.062
T8R,-0.513 ± 0.11,-0.259 ± 0.059
V122E,-0.665 ± 0.023,-0.162 ± 0.055
V122A,-0.528 ± 0.15,-0.155 ± 0.1
A101Q,-0.738 ± 0.032,-0.234 ± 0.044
A101V,-0.493 ± 0.36,-0.181 ± 0.27

Variant,selection coefficient against synonymous wild-type codons (log2) (methotrexate 8.8 µM),selection coefficient against synonymous wild-type codons (log2) (methotrexate 44 µM)
V85T,0.153 ± 0.034,0.191 ± 0.07
K5F,0.329 ± 0.042,0.267 ± 0.029
A67W,-0.356 ± 0.14,-0.259 ± 0.099
A67C,-0.247 ± 0.033,-0.157 ± 0.12
I76G,-0.83 ± 0.041,-0.325 ± 0.04
L102C,-0.624 ± 0.1,-0.386 ± 0.056
T144L,-0.672 ± 0.15,-0.347 ± 0.15
T144R,-0.748 ± 0.16,-0.411 ± 0.04
Q116V,-0.211 ± 0.05,-0.241 ± 0.09
Q116G,-0.169 ± 0.036,-0.166 ± 0.11
Q116L,-0.268 ± 0.057,-0.205 ± 0.15
Q116P,-0.0864 ± 0.048,-0.0843 ± 0.11
S48F,-0.256 ± 0.12,-0.147 ± 0.1
S48Q,-0.000565 ± 0.027,-0.0584 ± 0.091
Q107L,-0.287 ± 0.051,-0.256 ± 0.14
Q107R,0.0386 ± 0.019,-0.00182 ± 0.14
L9P,-0.429 ± 0.11,-0.16 ± 0.11
L9Q,-0.443 ± 0.16,-0.28 ± 0.1
S16F,-0.252 ± 0.11,-0.0996 ± 0.18
S16G,0.0746 ± 0.021,0.0568 ± 0.064
A95I,-0.726 ± 0.057,-0.223 ± 0.019
A95L,-0.745 ± 0.087,-0.325 ± 0.075
W202C,-0.264 ± 0.11,-0.329 ± 0.019

Variant,selection coefficient against synonymous wild-type codons (log2) (methotrexate 8.8 µM),selection coefficient against synonymous wild-type codons (log2) (methotrexate 44 µM)
W202P,-0.516 ± 0.065,-0.151 ± 0.053
W202E,-0.798 ± 0.037,-0.421 ± 0.044
W202H,-0.074 ± 0.024,-0.112 ± 0.016
T46W,-0.426 ± 0.14,-0.262 ± 0.05
L7I,-0.0801 ± 0.087,-0.108 ± 0.15
V11E,0.598 ± 0.025,0.848 ± 0.015
V11I,0.0398 ± 0.047,0.168 ± 0.12
A132L,-0.136 ± 0.055,-0.179 ± 0.13
S81D,-0.107 ± 0.086,0.437 ± 0.023
S81C,-0.118 ± 0.06,-0.119 ± 0.18
L177P,-0.724 ± 0.058,-0.371 ± 0.077
V55A,-0.552 ± 0.12,-0.275 ± 0.12
V55K,-0.569 ± 0.05,-0.321 ± 0.039
E149F,-0.422 ± 0.22,-0.282 ± 0.11
E149P,0.0576 ± 0.051,0.00778 ± 0.1
V79M,-0.649 ± 0.23,-0.248 ± 0.029
T14Y,-0.574 ± 0.018,-0.259 ± 0.099
M33L,0.298 ± 0.2,0.61 ± 0.3
M33N,0.872 ± 0.024,1.1 ± 0.023
F156E,0.525 ± 0.041,0.637 ± 0.02
F156V,0.0981 ± 0.041,0.108 ± 0.052
R75T,-0.285 ± 0.11,-0.0304 ± 0.13
V120Y,-0.5 ± 0.12,-0.255 ± 0.04

Variant,selection coefficient against synonymous wild-type codons (log2) (methotrexate 8.8 µM),selection coefficient against synonymous wild-type codons (log2) (methotrexate 44 µM)
G182E,-0.147 ± 0.046,-0.115 ± 0.049
V176R,-0.0307 ± 0.051,-0.195 ± 0.16
F36G,-0.437 ± 0.21,-0.161 ± 0.12
R96T,-0.172 ± 0.071,-0.156 ± 0.091
I142W,0.839 ± 0.024,1.41 ± 0.078
I142C,0.118 ± 0.034,0.52 ± 0.054
I142T,-0.466 ± 0.17,-0.196 ± 0.091
S175A,-0.00845 ± 0.052,-0.0191 ± 0.071
S175G,-0.00858 ± 0.02,-0.0972 ± 0.16
D87F,-0.454 ± 0.067,-0.23 ± 0.059
D87E,-0.0712 ± 0.046,0.0638 ± 0.12
D87T,-0.291 ± 0.04,-0.0627 ± 0.43
K30I,0.0628 ± 0.054,0.0847 ± 0.035
K30H,0.0183 ± 0.033,0.000888 ± 0.13
D153Y,-0.256 ± 0.068,-0.139 ± 0.087
A143G,-0.0193 ± 0.026,-0.0434 ± 0.13
Q51W,-0.193 ± 0.04,-0.0524 ± 0.16
I203F,-0.0936 ± 0.059,-0.0894 ± 0.043
I203K,0.0965 ± 0.099,0.0691 ± 0.069
F121W,-0.23 ± 0.057,-0.361 ± 0.1
L105A,-0.267 ± 0.095,-0.239 ± 0.14
L105W,-0.709 ± 0.17,-0.405 ± 0.04
L105G,-0.618 ± 0.2,-0.287 ± 0.11

Variant,selection coefficient against synonymous wild-type codons (log2) (methotrexate 8.8 µM),selection coefficient against synonymous wild-type codons (log2) (methotrexate 44 µM)
W3T,0.322 ± 0.026,0.369 ± 0.041
W3H,0.167 ± 0.025,0.178 ± 0.018
N77S,-0.125 ± 0.053,-0.117 ± 0.096
S64P,-0.407 ± 0.092,-0.125 ± 0.1
T49L,-0.126 ± 0.086,-0.0749 ± 0.087
V39I,0.0667 ± 0.041,0.127 ± 0.11
V39K,-0.572 ± 0.17,-0.303 ± 0.16
V39S,0.174 ± 0.033,0.221 ± 0.031
I123F,-0.0828 ± 0.0081,0.205 ± 0.075
I123N,-0.47 ± 0.11,-0.107 ± 0.042
R204N,-0.154 ± 0.06,-0.235 ± 0.13
K73R,-0.145 ± 0.15,-0.0449 ± 0.053
N74H,-0.273 ± 0.087,-0.217 ± 0.061
S162Y,-0.131 ± 0.0023,-0.0972 ± 0.18
S162D,0.0357 ± 0.035,-0.0936 ± 0.1
S162N,-0.00947 ± 0.034,-0.112 ± 0.17
S111P,0.00141 ± 0.041,-0.0811 ± 0.14
D32E,0.452 ± 0.022,0.5 ± 0.036
M201G,-0.0133 ± 0.043,-0.0776 ± 0.089
M201C,-0.0151 ± 0.042,-0.0102 ± 0.091
M201Y,-0.0251 ± 0.036,-0.00259 ± 0.14
M201R,-0.527 ± 0.13,-0.233 ± 0.09
M201F,-0.0926 ± 0.045,-0.115 ± 0.028
